{
  "source": "patent US20240270817A1",
  "about": "(PETMEDIX, published 2024)",
  "key": {"[1]": {"target": "NGF (species not stated) (Homo sapiens (Human)) (UniProt P01138)", "test": "cell-based or functional assay"}, "[2]": {"target": "NGF (species not stated) (Homo sapiens (Human)) (UniProt P01138)", "test": "SPR, Biacore 8K; captured on Protein A chip, NGF in solution (the table does not say human or rat)"}},
  "data": [
    {"binder": "PetML309 (Human p75NTR ECD partial stalk IgG1) (Fc fusion) KEACPTGLYTHSGECCKACNLGEGVAQPCGANQTVCEPCLDSVTFSDVVSATEPCKPCTECVGLQSMSAPCVEADDAVCRCAYGYYQDETTGRCEACRVCEAGSGLVFSCQDKQNTVCEECPDGTYSDEANHVDPCLPCTVCEDTERQLRECTRWADAECEEIPGRWITRSTPPEGGGG[sequence of human IgG1 Fc omitted]", "values": [
      {"measurement": "Bottom (%), best-fit values, PathHunter TrkA activation assay", "setting": "[1]", "value": 28.7, "unit": "%"},
      {"measurement": "IC50 (nM), PathHunter TrkA activation assay", "setting": "[1]", "value": 18.7, "unit": "nM"},
      {"measurement": "Top (%), best-fit values, PathHunter TrkA activation assay", "setting": "[1]", "value": 97.9, "unit": "%"},
      {"measurement": "Kd", "setting": "[2]", "value": 0.00231, "unit": "µM"}
    ]}
  ]
}
